Results as given in article PMC4336329 (PLoS ONE, 2015).
Among all 310,000 compounds or so, about 2,200 (0.71%) showed an effect of 50% or more. The effect is printed as a negative number. This is one part of the list.

Molecular target: human ether-à-go-go-related gene (hERG) potassium channel (human, UniProt Q12809)
Assay: primary screen, population patch clamp on CHO cells stably expressing hERG

Chain of human ether-à-go-go-related gene (hERG) potassium channel (Q12809 whole entry, looked up): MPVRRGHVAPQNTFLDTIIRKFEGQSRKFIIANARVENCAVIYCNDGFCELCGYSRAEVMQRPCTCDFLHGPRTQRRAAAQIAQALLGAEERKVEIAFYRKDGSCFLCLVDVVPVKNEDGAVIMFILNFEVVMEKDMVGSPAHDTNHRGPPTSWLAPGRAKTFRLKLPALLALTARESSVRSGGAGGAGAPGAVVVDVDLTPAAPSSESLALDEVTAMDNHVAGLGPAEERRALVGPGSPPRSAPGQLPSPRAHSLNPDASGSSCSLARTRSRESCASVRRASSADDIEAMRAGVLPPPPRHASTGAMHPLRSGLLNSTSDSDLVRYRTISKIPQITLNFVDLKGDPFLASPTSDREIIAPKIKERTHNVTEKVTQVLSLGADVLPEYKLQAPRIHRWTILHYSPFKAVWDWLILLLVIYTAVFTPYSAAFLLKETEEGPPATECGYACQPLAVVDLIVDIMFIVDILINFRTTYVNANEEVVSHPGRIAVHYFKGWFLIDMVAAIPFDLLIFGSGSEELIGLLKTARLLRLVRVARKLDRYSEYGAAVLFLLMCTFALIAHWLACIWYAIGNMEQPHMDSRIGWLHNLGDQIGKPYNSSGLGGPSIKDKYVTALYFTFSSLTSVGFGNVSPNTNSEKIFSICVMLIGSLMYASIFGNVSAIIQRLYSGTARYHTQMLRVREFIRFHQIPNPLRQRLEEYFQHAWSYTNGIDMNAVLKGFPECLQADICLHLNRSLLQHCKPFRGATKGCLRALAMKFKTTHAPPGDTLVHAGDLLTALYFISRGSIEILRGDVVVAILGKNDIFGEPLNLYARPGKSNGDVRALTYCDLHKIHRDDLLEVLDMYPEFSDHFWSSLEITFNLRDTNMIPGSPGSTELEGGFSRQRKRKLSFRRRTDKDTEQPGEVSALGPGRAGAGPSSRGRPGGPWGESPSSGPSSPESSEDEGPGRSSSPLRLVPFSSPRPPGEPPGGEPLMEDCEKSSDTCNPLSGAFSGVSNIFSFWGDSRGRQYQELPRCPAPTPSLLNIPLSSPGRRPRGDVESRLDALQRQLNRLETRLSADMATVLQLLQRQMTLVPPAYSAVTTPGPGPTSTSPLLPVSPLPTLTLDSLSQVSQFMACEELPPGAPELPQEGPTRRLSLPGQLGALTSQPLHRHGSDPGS

First: CC(C)CNc1nc2c(c(=O)n(C)c(=O)n2C)n1Cc1cccc(Br)c1
Second: Cn1c(=O)c2c(C(=O)O)cc(-c3ccccc3)nc2n(Cc2ccccc2)c1=O
The “hERG current change (%, negative = inhibition) at 1uM” value of the first is lower: 7.85% for the first, 16.2% for the second.

Compared with `NC(=O)C1CCN(C(=S)NCCc2ccccc2)CC1`, `Cc1n[nH]c(=O)nc1NCCc1ccccc1` is higher in “hERG current change (%, negative = inhibition) at 1uM” value: 6.51% for the first, 21.9% for the second.

Compared with `Cc1ccc(N2C(=O)c3ccc(N)cc3C2=O)cc1`, `Cc1ccc(C(=O)O)cc1-c1ccc(/C=C2/NC(=O)N(c3ccccc3)C2=O)o1` is lower in “hERG current change (%, negative = inhibition) at 1uM” value: 15.8% for the first, 4.13% for the second.

First: COc1ccc(NC(=O)c2ccc3c(=O)n(-c4ccc(OC)cc4OC)c(=S)[nH]c3c2)c(OC)c1
Second: COc1cc2[nH]c(C(=O)N(C)Cc3ccccc3)cc2c(OC)c1OC
The “hERG current change (%, negative = inhibition) at 1uM” value of the first is lower: 4.14% for the first, 4.9% for the second.

First: C#CCSc1n[nH]c(-c2ccco2)n1
Second: CCC(Sc1nc2ccccc2[nH]1)C(=O)Nc1cc(C)on1 (stereo not drawn)
The “hERG current change (%, negative = inhibition) at 1uM” value of the first is higher: 12.6% for the first, 11.2% for the second.

Compared with `O=C(CN(Cc1ccco1)C(=O)CCC(=O)Nc1ccccn1)NCCc1ccccc1`, `O=C(CSc1nnc(-c2ccncc2)n1CCc1ccccc1)NCc1ccccc1` is lower in “hERG current change (%, negative = inhibition) at 1uM” value: 15.2% for the first, -31.6% for the second.

Going from `CN1CCN(C(=O)C2=C[C@@H](c3ccc(C(F)(F)F)cc3)C[C@@H](OCCCCO)O2)CC1` to `C/C(=N\N1CCN(C)CC1)c1ccc(OC(F)F)cc1`, the “hERG current change (%, negative = inhibition) at 1uM” value falls from 6.43% to 5.48%.

Compared with `Cc1cc(C)c(/C=N/NC(=O)c2nnn(-c3nonc3N)c2CN2CCC(C)CC2)c(C)c1`, `Cc1ccc(C)c2[nH]c(=O)c(C(c3nnnn3C3CCCC3)N3CCOCC3)cc12` (stereo not drawn) is lower in “hERG current change (%, negative = inhibition) at 1uM” value: 14.1% for the first, 6.52% for the second.

First: CC(C)(C)c1csc(NC(=O)C2COc3ccccc3O2)n1 (stereo not drawn)
Second: COc1cccc2sc(NNC(=O)C3=COCCO3)nc12
The “hERG current change (%, negative = inhibition) at 1uM” value of the first is higher: 8.88% for the first, 5.6% for the second.

First: COc1ccc(NC(=O)C2CC(=O)N(Cc3ccco3)C2)cc1Cl (stereo not drawn)
Second: CCN(CC)S(=O)(=O)c1ccc(N2CCOCC2)c(NC(=S)NC(=O)c2ccco2)c1
The “hERG current change (%, negative = inhibition) at 1uM” value of the first is higher: 9.99% for the first, -6.76% for the second.

First: COc1cc(NC(=S)NCCc2c[nH]c3ccccc23)c(OC)cc1Cl
Second: CCC1Oc2ccc(C)cc2N(CC(=O)NCCc2ccc(OC)c(OC)c2)C1=O (stereo not drawn)
The “hERG current change (%, negative = inhibition) at 1uM” value of the first is higher: 10.9% for the first, -3.1% for the second.

First: O=C(c1ccc(-n2cnnn2)cc1)N1CCCCC1
Second: O=C(Nc1ccc(C(=O)NCCCN2CCN(c3ccc(F)cc3)CC2)cc1)C1=CSCCO1
The “hERG current change (%, negative = inhibition) at 1uM” value of the first is lower: -8.12% for the first, 0.792% for the second.

Going from `CC(C)C(=O)Nc1c2c(nc3c1CCC3)CCCC2` to `CCCCN(C(=O)c1cc2c(s1)CCCC2)c1c(N)n(CCC)c(=O)[nH]c1=O`, the “hERG current change (%, negative = inhibition) at 1uM” value rises from 9.87% to 10%.

Compared with `Cc1ccccc1-c1nsc(SCC(=O)c2ccc(Cl)cc2)n1`, `O=C(NCc1ccc(Cl)cc1)c1ccncc1` is lower in “hERG current change (%, negative = inhibition) at 1uM” value: 9.33% for the first, 8.5% for the second.

Going from `O=C(Cc1csc(N2CCOCC2)n1)N/N=C/c1cccc(O)c1` to `CC(=O)c1cccc(S(=O)(=O)NCCCN2CCOCC2)c1.Cl`, the “hERG current change (%, negative = inhibition) at 1uM” value rises from -2.27% to -0.0465%.

Compared with `C/C(CC(=O)NCCN1CCOCC1)=N\NC(=O)c1ccncc1`, `COCCCn1c(SCC(=O)N2CCOCC2)nc2cc(Cl)ccc2c1=O` is lower in “hERG current change (%, negative = inhibition) at 1uM” value: 14% for the first, -1.66% for the second.

Compared with `CCC(C)NC(=O)C1CCN(S(=O)(=O)N2CCC3(CC2)OCCO3)CC1` (stereo not drawn), `CC1CC(C)CN(S(=O)(=O)N2CCC(C(=O)NCCC3=CCCCC3)CC2)C1` (stereo not drawn) is lower in “hERG current change (%, negative = inhibition) at 1uM” value: 17.1% for the first, 8.36% for the second.

Going from `Cc1ccc(NC(=S)N(C)Cc2cn(C)c3ccccc23)cc1` to `Cc1cc(C)cc(NC(=S)N(Cc2ccc(Br)cc2)Cc2ccc(C(=O)O)cc2)c1`, the “hERG current change (%, negative = inhibition) at 1uM” value rises from 7.47% to 10%.

Compared with `COc1ccc(CN(C)C(=O)Cc2ccc(OC)c(S(=O)(=O)N3CCOCC3)c2)cc1OC`, `COC(=O)c1ccc(OC)c(CSc2nnc(-c3ccc(C(C)(C)C)cc3)o2)c1` is higher in “hERG current change (%, negative = inhibition) at 1uM” value: 6.69% for the first, 14.6% for the second.

Compared with `Cc1cc(S(=O)(=O)Nc2cccc([N+](=O)[O-])c2)c(C)s1`, `Cc1cccc(Cn2nc(C)cc2NC(=O)Cn2cc([N+](=O)[O-])cn2)c1` is lower in “hERG current change (%, negative = inhibition) at 1uM” value: 9.94% for the first, 4.15% for the second.

First: C=CCN(CC=C)C(=S)NC(=O)/C=C/c1ccc(OC)cc1
Second: CCN(CC)c1ccc(/C=C/C(=O)c2cccnc2)cc1
The “hERG current change (%, negative = inhibition) at 1uM” value of the first is lower: 3.77% for the first, 9.65% for the second.

Going from `Cc1cc(C)cc(C(=O)NC(=S)Nc2cccnc2)c1` to `COc1cccc(CNC(=O)C2CCCN(c3nn4c(=O)cc(C)nc4s3)C2)c1` (stereo not drawn), the “hERG current change (%, negative = inhibition) at 1uM” value rises from -21.1% to 1.31%.

Compared with `S=c1[nH]nc(-c2cc(-c3ccsc3)n[nH]2)n1-c1ccccc1`, `O=C(O)c1cn(-c2ccccc2)c(=O)c2ccccc12` is lower in “hERG current change (%, negative = inhibition) at 1uM” value: 4.95% for the first, 3.59% for the second.

First: CCc1nnc(NC(=O)CSc2ccc(-c3cccs3)nn2)s1
Second: CCOc1ccc(OCC(=O)Nc2ccccc2C(F)(F)F)cc1
The “hERG current change (%, negative = inhibition) at 1uM” value of the first is lower: 5.48% for the first, 11.6% for the second.

Compared with `Cc1cc2c(cc(C(=O)OC(C(=O)NCc3ccco3)C(C)C)n2C)o1` (stereo not drawn), `CC(C)CC(=O)O/N=C1\C(=O)N(Cc2ccc(Cl)cc2)c2ccc([N+](=O)[O-])cc21` is lower in “hERG current change (%, negative = inhibition) at 1uM” value: 2.13% for the first, -6.64% for the second.

Going from `CCCCc1ccc(-c2csc(/C(C#N)=C/c3ccc(C)o3)n2)cc1` to `COC(=O)[C@H](NC(=O)c1cc(-c2ccccc2)nc2ccccc12)c1ccccc1`, the “hERG current change (%, negative = inhibition) at 1uM” value rises from 10.7% to 13.3%.

Compared with `COc1cccc2[nH]c3c(N4CCC5(CC4)OCCO5)ncnc3c12`, `CSc1ccc(CN2C(=O)NC3(CCCCCCC3)C2=O)cc1` is lower in “hERG current change (%, negative = inhibition) at 1uM” value: 8.06% for the first, 6.79% for the second.

Compared with `CCOC(=O)CN=C(NS(=O)(=O)c1ccc(Cl)cc1)c1ccccc1`, `O=C1CCC(C(=O)OCc2cc(Cl)ccc2OC(F)F)N1` (stereo not drawn) is higher in “hERG current change (%, negative = inhibition) at 1uM” value: 8.21% for the first, 13.4% for the second.

In the case of `Cn1c2c(c(=O)n(C)c1=O)C(c1ccccc1F)C(C#N)=C(N)O2` (stereo not drawn), the “hERG current change (%, negative = inhibition) at 1uM” value is reported as 9.61%.
